# The supplement of paper PMC9446081
# About 220 (0.56%) of roughly 39,000 compounds showed activity. This is one part of the list.
# System: Escherichia coli K-12 BW25113
# Experiment: relative growth (OD600 normalised to plate interquartile mean) (fraction); higher = less growth inhibition, active = 0.2 or less
# Settings: 50 µM; LB; incubation time: overnight (16-24 h)
# 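Note: static incubation at 37 °C against the wild-type strain, values averaged over two biological replicates.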
row,Structure (SMILES),relative growth
1,C[C@@H]1CCCCO[C@H](CN(C)Cc2ccc(Cl)c(Cl)c2)[C@@H](C)CN([C@@H](C)CO)C(=O)c2cc(NC(=O)Cc3ccccc3)ccc2O1,inactive: 0.95
2,C[C@@H]1CCCCO[C@@H](CN(C)S(=O)(=O)c2cccs2)[C@@H](C)CN([C@@H](C)CO)C(=O)c2cc(NC(=O)Nc3cccc4ccccc34)ccc2O1,inactive: 1.01
3,C[C@@H]1CCCCO[C@H](CN(C)S(=O)(=O)c2ccc(Cl)cc2)[C@H](C)CN([C@@H](C)CO)C(=O)c2cc(NS(=O)(=O)c3cccs3)ccc2O1,inactive: 1.01
4,CCOc1nn(CC)cc1C(=O)O,inactive: 0.984
5,Cc1ccc(S(=O)(=O)Nc2ccc3c(c2)CC(=O)N([C@@H](C)CO)C[C@H](C)[C@@H](CN(C)S(=O)(=O)c2c(C)noc2C)O3)cc1,inactive: 0.984
6,C[C@H](CO)N1C[C@H](C)[C@@H](CN(C)S(=O)(=O)c2ccccc2)OCCCC[C@H](C)Oc2ccc(NC(=O)NC3CCCCC3)cc2C1=O,inactive: 1.02
7,C[C@H](CO)N1C[C@H](C)[C@H](CN(C)C(=O)CCC(F)(F)F)OCc2ccccc2-c2c(n(C)c3ccccc23)C1=O,inactive: 0.979
8,OC1OC(c2ccc(Cl)c(Cc3ccc(OC4CCOC4)cc3)c2)C(O)C(O)C1O (configuration not stated),inactive: 1.01
9,O=C(C[C@@H]1C[C@@H]2c3cc(NC(=O)C4CCOCC4)ccc3O[C@@H]2[C@@H](CO)O1)NCc1cc(F)ccc1F,inactive: 0.979
10,CO[C@@H]1CN(C)C(=O)c2ccc(NC(=O)Nc3ccc(Cl)cc3)cc2OC[C@H](C)N(C(=O)Nc2c(C)noc2C)C[C@H]1C,inactive: 0.996
11,O=C(C[C@@H]1C=C[C@H](NS(=O)(=O)c2ccccc2)[C@@H](CO)O1)NCc1ccncn1,inactive: 1.01
12,C[C@@H]1CN([C@@H](C)CO)C(=O)c2cccc(NC(=O)Nc3ccc(F)cc3)c2O[C@@H]1CN(C)C(=O)Nc1ccc(C(F)(F)F)cc1,inactive: 1
13,C[C@@H]1CN([C@@H](C)CO)C(=O)Cc2cc(NC(=O)C3CC3)ccc2O[C@H]1CN(C)S(=O)(=O)c1ccccc1,inactive: 1.02
14,CC(CC(=O)C1OC1(C)C)C1C(=O)CC2(C)C3=CCC4C(C)(C)C(OC5OCC(O)C(O)C5O)CCC45CC35C(O)CC12C (configuration not stated),inactive: 0.978
15,C[C@H](CO)N1C[C@H](C)[C@@H](CN(C)S(C)(=O)=O)Oc2ccc(NC(=O)CCCCCC(=O)Nc3ccccc3N)cc2C1=O,inactive: 0.985
16,COc1ccc2c3c([nH]c2c1)[C@@H](CO)N(C[C@]13CCN(CC1)C(=O)Nc1ccccc1)C(=O)Nc1ccc(cc1)F,inactive: 0.987
17,C#CCCCCCCCCCCC[C@H](O)C[C@H](O)COC(C)=O.C=CCCCCCCCCCCC[C@H](O)C[C@H](O)COC(C)=O,inactive: 0.803
18,COc1ccc(C#Cc2ccc3c(c2)[C@]2(C(=O)N3)[C@H](C(=O)Nc3nc4ccccc4s3)[C@H]3C(=O)O[C@H](c4ccccc4)[C@H](c4ccccc4)N3[C@@H]2c2ccccc2OCCO)cc1,inactive: 1.02
19,NCCCS(=O)(=O)O,inactive: 0.971

row,Structure (SMILES),relative growth
1,C[C@H]1CN([C@@H](C)CO)C(=O)Cc2cc(NC(=O)Nc3ccc4c(c3)OCO4)ccc2O[C@H]1CN(C)S(C)(=O)=O,inactive: 0.989
2,C[C@@H]1CCCCO[C@@H](CN(C)S(=O)(=O)c2cccs2)[C@@H](C)CN([C@@H](C)CO)C(=O)c2cc(NC(=O)c3ccccc3)ccc2O1,inactive: 1.02
3,CC#CCO[Si](C#CCCCCCC)(C(C)C)C(C)C,inactive: 0.992
4,C[C@@H]1CCCCO[C@@H](CN(C)Cc2ccc(Cl)c(Cl)c2)[C@H](C)CN([C@H](C)CO)C(=O)c2cc(NS(=O)(=O)c3ccc(F)cc3)ccc2O1,inactive: 1.03
5,COc1ccccc1-c1ccc2n(c1=O)C[C@@H]1[C@@H](CO)[C@H](C(=O)NCC3CC3)N(S(C)(=O)=O)[C@H]21,inactive: 0.996
6,C[C@@H]1CN([C@H](C)CO)C(=O)c2cc(NC(=O)CCN3CCOCC3)ccc2O[C@H]1CN(C)Cc1ccc2c(c1)OCO2,inactive: 1.04
7,C[C@H](CO)N1C[C@H](C)[C@H](CN(C)S(=O)(=O)c2cccs2)Oc2ncc(-c3ccc(F)cc3)cc2C1=O,inactive: 0.964
8,C[C@@H]1CN([C@H](C)CO)C(=O)c2c(c3ccccc3n2C)-c2ccccc2CO[C@H]1CN(C)C(=O)c1ccc(F)cc1,inactive: 1.02
9,C[C@@H]1CN([C@H](C)CO)C(=O)Cc2cc(NC(=O)Cn3cnnn3)ccc2O[C@H]1CN(C)Cc1ccc2c(c1)OCO2,inactive: 0.995
10,CC(C)(C)[S@@](=O)N1Cc2cc(C(=O)NCCN3CCCCC3)nc(-c3cccc(-c4cccc(C#N)c4)c3)c2[C@H]1CCO,inactive: 1.01
11,COc1ccc(NC(=O)N(C)C[C@@H]2OCc3cnnn3CCCC(=O)N([C@H](C)CO)C[C@H]2C)c(OC)c1,inactive: 0.993
12,CC(C)NC(=O)Nc1cccc2c1O[C@H](CN(C)Cc1ccc(-c3ccccc3)cc1)[C@H](C)CN([C@H](C)CO)C2=O,inactive: 1.01
13,CCOC(=O)CCCCCC(=O)Nc1ccc2c(c1)C(=O)N([C@@H](C)CO)C[C@H](C)[C@H](CN(C)S(=O)(=O)c1ccc(OC)cc1)OCCCC[C@H](C)O2,inactive: 1.02
14,Cc1cc(C(=O)Nc2cccc3c2O[C@@H](CN(C)S(=O)(=O)c2cccs2)[C@@H](C)CN([C@@H](C)CO)C3=O)n(C)n1,inactive: 0.991
15,C[C@@H]1CN([C@@H](C)CO)C(=O)c2cccc(NS(=O)(=O)c3ccc(F)cc3)c2O[C@H]1CN(C)C(=O)Nc1ccc(C(F)(F)F)cc1,inactive: 0.945
16,Cc1ccc(S(=O)(=O)Nc2cccc3c2O[C@H](CN(C)S(=O)(=O)c2ccccc2)[C@@H](C)CN([C@H](C)CO)C3=O)cc1,inactive: 1.02
17,O=C(C[C@H]1CC[C@@H]2[C@H](COC[C@@H](O)CN2S(=O)(=O)c2cccc(Cl)c2)O1)NCCCN1CCOCC1,inactive: 0.982
18,CCc1nc2ccc(C(=O)Nc3cc(-c4ccccc4)ccc3OC)cn2c1N(C)Cc1ccc(OC)cc1,inactive: 1.03
